Reference: the RNAGym collection of RNA variant scans (doi:10.1093/nar/gkz1192)
Read counts are not given, so values of variants with three or more changes are uncertain.

B1: CPEB3 Ribozyme (parent)
chain: UAACAGGGGGCCACAGCAGAAGCGUUCACGUCGCAGCCCCUGUCAGAUUCUGGUGAAUCUGCGAAUUCUGCUGUAUAUCUC

Variants of: B1
Assay: self-cleavage, relative activity (ratio to wild type); higher = more cleavage; in vitro, sequencing
Method in brief: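 Relative activity was defined as the cleaved/total read fraction for a variant divided by the same fraction for the unmutated ribozyme. CPEB3 self-cleaving ribozyme libraries were made by rounds of error-prone PCR, barcoded, and transcribed in vitro with T7 RNA polymerase for 5 hours at 37°C, and cleavage ran through transcription plus a 15 min DNase I step before EDTA. Illumina sequencing of template-switched reverse transcripts gave the reads, and DNA sequencing mapped the barcodes. Averages come from three batches, using variants with at least 5 reads.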

Variant | self-cleavage
A35G U51A G55A U58C U72C A75U | 1.16
A35G U51A U60A | 1.23
A35G U51A U66C U72G U78C | 1.15
A35G U51A U67G | 1.41
A35G U51A U72G | 1.25
A35G U51C A56G U69C | 1.21
A35G U51C A57U C62U U78A | 0.34
A35G U51C C62A A64U | 0.46
A35G U51C C62A A65U | 0.39
A35G U51C G73A | 1.41
A35G U51C U54A G73A U74C A75G | 1.24
A35G U51C U60C | 0.24
A35G U51C U69C G70A | 0.67
A35G U51C U74C A75G | 1.3
A35G U51C U74G | 1.3
A35G U51G A57G | 1.29
A35G U51G U54C | 1.25
A35G U51G U58C U67A U69A | 0.81
A35G U54A A57G A77G | 1.28
A35G U54A A65G U78C | 1.23
A35G U54C A56U A64G | 1
A35G U54C A57G | 1.11
A35G U54C A64U U74C U78C | 1.19
A35G U54C A65G | 1.16

Variant | self-cleavage
A35G U54C A77U | 1.28
A35G U58A U72A | 0.48
A35G U58C A65G | 0.59
A35G U58C U60C | 0.45
A35G U58G U60C U67C U72C | 0.31
A35G U60A U80C | 1.19
A35G U60G U72C | 0.78
A35G U66A U72A | 1.14
A35G U66C G70A | 0.44
A35G U67A U72C U80A | 1.18
A35G U69A A75G | 1.29
A35G U72A U78A | 1.26
A35G U72C U74A | 1.28
A35G U74C A77G | 1.31
A35G U76C U80C | 1.29
A35G U78A U80C | 1.22
A35G U78C C79U | 1.29
A35G U78C U80A | 1.32
A35U A45G A47G U48C U72A | 0.12
A35U A45G A56G | 0.4
A35U A45G A57G | 0.14
A35U A45G A64U | 0.3
A35U A45G A65G | 0.4
A35U A45G U48C U58A | 0.08

Variant | self-cleavage
A35U A45G U48C U67C | 0.11
A35U A45G U51G U54C U80C | 0.21
A35U A45G U54C | 0.21
A35U A45G U60A U69A | 0.13
A35U A45G U60A U72A | 0.14
A35U A45G U66G | 0.38
A35U A45G U67C U72C U78C | 0.16
A35U A45G U69C | 0.15
A35U A45G U72C U74C | 0.18
A35U A45U A56G U58C A65G | 0.18
A35U A45U A56G U69C | 0.11
A35U A45U G70A A75G C79U | 0.07
A35U A45U U51A | 0.15
A35U A45U U51C U66C U72C U80C | 0.05
A35U A45U U54C | 0.25
A35U A45U U60A U78A | 0.38
A35U A47C U49A U78A | 0.06
A35U A47G A64U U76C U80C | 0.15
A35U A47G G73A | 1.22
A35U A47G U48C U60C U72A | 0.11
A35U A47G U54C A56G | 0.24
A35U A47G U54C U60C A77G | 0.12
A35U A47G U60C | 0.09
A35U A47G U66C | 0.33

Variant | self-cleavage
A35U A47G U67C | 0.12
A35U A47U A56U U60C | 0.1
A35U A47U A77G | 0.38
A35U A47U U80C | 0.47
A35U A56G A64G | 0.14
A35U A56G C62U G73U | 0.32
A35U A56U A64G U78C | 0.13
A35U A56U U60C A77U | 0.1
A35U A56U U69G | 0.09
A35U A56U U72A U80C | 0.41
A35U A57G G61C C79A U80C | 0.11
A35U A57G U58C C59A U72C | 0.09
A35U A57G U60A | 0.14
A35U A57G U60G | 0.08
A35U A57G U69G U72C | 0.13
A35U A64G A65U | 0.22
A35U A64U U67A U69C | 0.1
A35U A65G U66A G73A | 0.14
A35U A65G U78C | 0.12
A35U A75G U80G | 0.43
A35U A77U U78A | 0.67
A35U C37G U60A U72A | 0.11
A35U C37U U41A | 0.15
A35U C37U U43A A47G U72C | 0.09

Variant | self-cleavage
A35U C38A U48C | 0.12
A35U C38G U51C | 0.17
A35U C38U A47G | 0.36
A35U C38U U49A | 0.2
A35U C38U U72A | 0.39
A35U C40G U43C | 0.21
A35U C40U C62U | 0.1
A35U C40U U43C U49C | 0.07
A35U C50A C81U | 0.39
A35U C50G U69A | 0.17
A35U C62U C71A | 0.08
A35U C62U U76C | 0.08
A35U C71G A75G | 0.07
A35U G36A G55A A57U A77G | 0.12
A35U G36A U69C U72A | 0.07
A35U G36C C38A U51A A56U A65G U67C | 0.07
A35U G36C C40U A75U | 0.15
A35U G36U A45G U54C U78A | 0.06
A35U G36U A56U | 0.25
A35U G42U U43C U69A U80C | 0.12
A35U G52A A77G | 0.6
A35U G52A U60C A64G A75U U76C | 0.12
A35U G70A C79U | 0.26
A35U G73U U78C | 1.21

Variant | self-cleavage
A35U U41A A45C G70A C71G | 0.06
A35U U41A A45G U51C U58C U60C | 0.07
A35U U41A A57C | 0.11
A35U U41A A65C U67G | 0.1
A35U U41A A77U | 0.35
A35U U41A U54C | 0.52
A35U U41A U58C U69A U72C | 0.06
A35U U41A U66C | 0.35
A35U U41C A45C A75G A77G | 0.07
A35U U41C A47G U76A | 0.53
A35U U41C A56U A77U U78C | 0.34
A35U U41C C59U A77G | 0.24
A35U U41C G42U G46U U48C | 0.16
A35U U41C G46U A64U | 0.11
A35U U41C G55C A65G | 0.1
A35U U41C U43A G46U | 0.17
A35U U41C U43A U60C G70U | 0.17
A35U U41C U43C U60A | 0.08
A35U U41C U43C U76C | 0.19
A35U U41C U49G | 0.33
A35U U41C U49G A64G | 0.22
A35U U41C U54C U67C U80C | 0.17
A35U U41C U58C A64G A75G | 0.07
A35U U41C U58C A64U U74A A75G | 0.12

Variant | self-cleavage
A35U U41C U67C | 0.11
A35U U41C U80C | 0.54
A35U U43A A45U U78G | 0.37
A35U U43A U51C A77G | 0.39
A35U U43A U60C | 0.23
A35U U43A U67A U69C | 0.25
A35U U43A U67C U74C U80A | 0.04
A35U U43C A45G U51A A65U | 0.25
A35U U43C A56G A65G C71G U78C C81U | 0.11
A35U U43C A56G C71G U78C C81U | 0.04
A35U U43C A56G U60A A75G A77U | 0.07
A35U U43C A57G C71G | 0.1
A35U U43C A64G | 0.33
A35U U43C A77U | 0.15
A35U U43C C62U A65C U72A | 0.09
A35U U43C G52A | 0.36
A35U U43C U48C A57G U74C | 0.61
A35U U43C U48C G70A U78C | 0.24
A35U U43C U49C U69C | 0.21
A35U U43C U54A A56G | 0.38
A35U U43C U60G A64G | 0.16
A35U U43C U66A | 0.17
A35U U43C U69A G70U U76C | 0.29
